Results reported in PMC9345960, “ERK1/2 inhibits Cullin 3/SPOP-mediated PrLZ ubiquitination and degradation to modulate prostate cancer progression” (Cell Death and Differentiation, 2022).
Results are given in words; binding and its absence hold for the method and conditions named. Binding seen in cells or lysates may run through a third protein. Some results given as binding are weak or reduced against the parent protein; the word gives no strength. Tags and fused reporters may be left off the sequences shown.

Amino acid sequences for entries named in this document (tags omitted). A change or cut given only in a name is not applied to a line headed by its entry.
UniProt Q13616: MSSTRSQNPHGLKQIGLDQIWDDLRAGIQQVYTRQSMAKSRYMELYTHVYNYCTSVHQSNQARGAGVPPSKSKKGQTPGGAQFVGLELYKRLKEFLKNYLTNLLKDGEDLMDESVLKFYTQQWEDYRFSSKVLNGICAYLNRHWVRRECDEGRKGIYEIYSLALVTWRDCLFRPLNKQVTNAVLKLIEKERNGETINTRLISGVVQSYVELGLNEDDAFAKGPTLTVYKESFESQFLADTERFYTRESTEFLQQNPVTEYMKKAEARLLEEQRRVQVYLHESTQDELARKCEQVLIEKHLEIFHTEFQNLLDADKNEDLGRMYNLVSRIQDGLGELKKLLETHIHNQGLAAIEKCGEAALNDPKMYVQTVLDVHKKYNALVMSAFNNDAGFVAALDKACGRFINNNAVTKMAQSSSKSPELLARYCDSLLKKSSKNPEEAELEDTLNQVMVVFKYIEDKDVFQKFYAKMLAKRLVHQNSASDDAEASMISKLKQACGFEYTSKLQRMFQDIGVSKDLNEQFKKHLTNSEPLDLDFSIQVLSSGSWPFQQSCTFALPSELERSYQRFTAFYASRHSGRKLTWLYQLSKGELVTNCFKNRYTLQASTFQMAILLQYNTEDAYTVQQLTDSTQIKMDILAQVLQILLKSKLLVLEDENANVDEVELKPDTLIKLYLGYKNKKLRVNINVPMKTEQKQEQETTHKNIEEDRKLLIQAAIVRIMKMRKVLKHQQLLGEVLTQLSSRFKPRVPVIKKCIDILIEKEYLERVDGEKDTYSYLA
UniProt Q93034: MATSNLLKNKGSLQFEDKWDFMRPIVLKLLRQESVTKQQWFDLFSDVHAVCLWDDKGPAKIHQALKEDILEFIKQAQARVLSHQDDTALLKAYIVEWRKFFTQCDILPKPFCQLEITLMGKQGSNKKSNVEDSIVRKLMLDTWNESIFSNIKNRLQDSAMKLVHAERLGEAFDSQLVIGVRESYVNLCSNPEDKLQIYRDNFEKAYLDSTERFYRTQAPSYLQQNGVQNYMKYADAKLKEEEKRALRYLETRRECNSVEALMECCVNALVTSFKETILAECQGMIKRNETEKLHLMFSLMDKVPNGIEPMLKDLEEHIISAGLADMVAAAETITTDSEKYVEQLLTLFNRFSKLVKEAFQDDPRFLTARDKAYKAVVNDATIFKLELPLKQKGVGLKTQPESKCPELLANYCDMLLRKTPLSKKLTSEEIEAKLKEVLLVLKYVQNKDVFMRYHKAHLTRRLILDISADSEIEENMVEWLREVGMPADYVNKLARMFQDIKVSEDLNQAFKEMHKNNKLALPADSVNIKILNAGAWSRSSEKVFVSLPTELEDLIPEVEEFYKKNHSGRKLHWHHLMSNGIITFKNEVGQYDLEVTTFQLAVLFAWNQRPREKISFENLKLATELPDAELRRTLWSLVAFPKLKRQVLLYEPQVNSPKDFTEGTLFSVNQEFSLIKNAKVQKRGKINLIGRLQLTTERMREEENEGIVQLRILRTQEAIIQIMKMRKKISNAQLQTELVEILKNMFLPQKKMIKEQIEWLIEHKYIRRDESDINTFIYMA
UniProt Q13617: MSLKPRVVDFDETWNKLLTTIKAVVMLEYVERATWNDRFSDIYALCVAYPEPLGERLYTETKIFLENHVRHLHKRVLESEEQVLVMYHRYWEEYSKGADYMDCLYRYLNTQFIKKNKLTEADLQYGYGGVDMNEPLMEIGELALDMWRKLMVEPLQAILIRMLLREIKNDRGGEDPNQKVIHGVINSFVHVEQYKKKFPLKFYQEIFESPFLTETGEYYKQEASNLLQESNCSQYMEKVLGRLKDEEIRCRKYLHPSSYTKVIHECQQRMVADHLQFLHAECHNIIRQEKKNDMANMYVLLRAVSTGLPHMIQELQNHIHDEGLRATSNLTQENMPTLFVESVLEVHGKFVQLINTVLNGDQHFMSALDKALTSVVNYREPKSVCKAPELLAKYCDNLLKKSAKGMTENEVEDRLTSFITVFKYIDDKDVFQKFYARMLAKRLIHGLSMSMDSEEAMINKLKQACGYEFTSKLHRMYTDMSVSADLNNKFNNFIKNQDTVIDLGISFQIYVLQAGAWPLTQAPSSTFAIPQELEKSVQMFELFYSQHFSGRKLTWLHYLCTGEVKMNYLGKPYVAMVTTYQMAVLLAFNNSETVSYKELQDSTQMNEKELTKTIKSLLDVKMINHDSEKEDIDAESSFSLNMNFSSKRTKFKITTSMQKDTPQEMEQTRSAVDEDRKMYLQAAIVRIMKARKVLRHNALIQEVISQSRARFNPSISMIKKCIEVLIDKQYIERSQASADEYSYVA
UniProt Q13619: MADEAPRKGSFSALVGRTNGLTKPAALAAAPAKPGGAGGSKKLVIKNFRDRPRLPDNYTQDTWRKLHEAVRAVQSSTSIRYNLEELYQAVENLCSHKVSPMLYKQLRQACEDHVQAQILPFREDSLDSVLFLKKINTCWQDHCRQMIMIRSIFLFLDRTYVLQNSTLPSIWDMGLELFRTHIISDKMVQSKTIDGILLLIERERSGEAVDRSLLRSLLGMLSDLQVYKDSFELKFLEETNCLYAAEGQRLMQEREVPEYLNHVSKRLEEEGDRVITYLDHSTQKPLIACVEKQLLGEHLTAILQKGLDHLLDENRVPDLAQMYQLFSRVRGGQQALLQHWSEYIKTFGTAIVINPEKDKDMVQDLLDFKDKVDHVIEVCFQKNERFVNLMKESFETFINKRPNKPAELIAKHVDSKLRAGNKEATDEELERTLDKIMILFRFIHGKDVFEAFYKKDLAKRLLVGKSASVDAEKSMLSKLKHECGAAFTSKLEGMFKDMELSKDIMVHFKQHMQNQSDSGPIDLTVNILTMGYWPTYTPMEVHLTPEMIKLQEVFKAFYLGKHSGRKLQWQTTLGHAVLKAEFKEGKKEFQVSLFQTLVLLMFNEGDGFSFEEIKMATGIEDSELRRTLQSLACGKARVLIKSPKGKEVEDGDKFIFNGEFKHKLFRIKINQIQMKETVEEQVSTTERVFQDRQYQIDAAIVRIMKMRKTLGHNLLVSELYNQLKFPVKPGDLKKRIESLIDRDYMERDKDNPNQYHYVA
UniProt Q13620: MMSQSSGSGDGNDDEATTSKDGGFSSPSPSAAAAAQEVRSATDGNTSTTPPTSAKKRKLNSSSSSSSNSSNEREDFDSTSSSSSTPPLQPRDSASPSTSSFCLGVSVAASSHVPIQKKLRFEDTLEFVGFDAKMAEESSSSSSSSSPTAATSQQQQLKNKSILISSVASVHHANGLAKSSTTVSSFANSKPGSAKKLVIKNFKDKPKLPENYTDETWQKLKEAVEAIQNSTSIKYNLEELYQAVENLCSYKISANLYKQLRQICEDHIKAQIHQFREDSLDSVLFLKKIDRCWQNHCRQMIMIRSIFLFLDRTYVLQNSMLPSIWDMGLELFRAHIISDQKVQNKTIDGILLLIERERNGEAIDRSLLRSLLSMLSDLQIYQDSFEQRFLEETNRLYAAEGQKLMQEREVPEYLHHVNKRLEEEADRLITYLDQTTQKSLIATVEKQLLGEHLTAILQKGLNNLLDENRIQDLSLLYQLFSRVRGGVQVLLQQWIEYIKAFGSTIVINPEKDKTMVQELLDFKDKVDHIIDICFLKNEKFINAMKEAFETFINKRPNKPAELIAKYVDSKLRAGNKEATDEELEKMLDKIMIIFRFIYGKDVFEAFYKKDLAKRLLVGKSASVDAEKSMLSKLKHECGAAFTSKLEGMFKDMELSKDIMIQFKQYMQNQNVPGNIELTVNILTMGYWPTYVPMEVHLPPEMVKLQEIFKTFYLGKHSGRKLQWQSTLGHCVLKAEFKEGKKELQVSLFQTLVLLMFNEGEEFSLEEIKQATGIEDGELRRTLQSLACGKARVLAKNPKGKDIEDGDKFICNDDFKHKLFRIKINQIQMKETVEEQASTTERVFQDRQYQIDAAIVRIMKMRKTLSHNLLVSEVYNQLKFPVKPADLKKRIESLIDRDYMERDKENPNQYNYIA
UniProt P28482: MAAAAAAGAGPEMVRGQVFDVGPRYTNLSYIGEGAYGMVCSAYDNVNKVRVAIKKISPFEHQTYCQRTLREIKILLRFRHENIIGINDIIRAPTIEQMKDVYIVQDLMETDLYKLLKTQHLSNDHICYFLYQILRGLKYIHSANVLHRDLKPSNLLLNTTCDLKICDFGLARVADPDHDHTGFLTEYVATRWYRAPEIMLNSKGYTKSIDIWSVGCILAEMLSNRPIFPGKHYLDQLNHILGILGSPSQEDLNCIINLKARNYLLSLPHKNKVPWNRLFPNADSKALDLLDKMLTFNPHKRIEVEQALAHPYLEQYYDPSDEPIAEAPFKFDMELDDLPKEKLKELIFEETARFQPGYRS
UniProt P27361: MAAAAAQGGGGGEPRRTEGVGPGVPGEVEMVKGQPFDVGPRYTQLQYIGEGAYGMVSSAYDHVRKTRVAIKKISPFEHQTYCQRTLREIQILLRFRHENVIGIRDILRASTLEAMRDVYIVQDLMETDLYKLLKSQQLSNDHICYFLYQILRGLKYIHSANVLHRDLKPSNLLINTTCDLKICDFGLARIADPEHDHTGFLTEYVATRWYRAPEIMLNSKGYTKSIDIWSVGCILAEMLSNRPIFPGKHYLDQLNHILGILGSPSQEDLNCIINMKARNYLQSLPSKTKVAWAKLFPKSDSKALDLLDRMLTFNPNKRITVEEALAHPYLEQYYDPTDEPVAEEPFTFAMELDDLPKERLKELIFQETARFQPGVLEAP
UniProt O43791: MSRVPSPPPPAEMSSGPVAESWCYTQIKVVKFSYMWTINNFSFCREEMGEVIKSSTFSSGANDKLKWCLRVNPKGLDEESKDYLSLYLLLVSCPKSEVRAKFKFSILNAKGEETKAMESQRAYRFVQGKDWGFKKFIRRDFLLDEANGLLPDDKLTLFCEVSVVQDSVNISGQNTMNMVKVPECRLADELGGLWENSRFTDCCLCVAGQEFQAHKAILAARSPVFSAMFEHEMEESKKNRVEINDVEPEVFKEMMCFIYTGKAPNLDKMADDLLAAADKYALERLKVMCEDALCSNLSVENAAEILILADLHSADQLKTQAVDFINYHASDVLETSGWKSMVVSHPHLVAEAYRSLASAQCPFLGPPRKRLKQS

How the values were obtained:
Myc-Cullin 1 = Myc-Cullin 1 (UniProt Q13616); test: co-IP; anti-Myc IP from 293T cells transfected with Flag-PrLZ and Myc-tagged Cullins (Fig. 1c)
Myc-Cullin 5 = Myc-Cullin 5 (UniProt Q93034); test: as above
Myc-Cullin 2 = Myc-Cullin 2 (UniProt Q13617); test: as above
Myc-Cullin 4A = Myc-Cullin 4A (UniProt Q13619); test: as above
Myc-Cullin 4B = Myc-Cullin 4B (UniProt Q13620); test: as above
HA-ERK2 = HA-ERK2 (UniProt P28482); test: co-IP; anti-HA agarose IP (4 h, 4 °C, EBC lysis buffer) from transfected 293T cells: HA-PrLZ with Flag-tagged BTB proteins (Fig. 2a), HA-SPOP WT or mutants with Flag-PrLZ (Fig. 3d), HA-ERK1 or HA-ERK2 with Flag-PrLZ (Fig. 5e); in some panels 20 μM MG132 for 6 h
HA-ERK1 = HA-ERK1 (UniProt P27361); test: as above
HA-SPOP Y87C = HA-SPOP Y87C (UniProt O43791); test: as above
HA-SPOP W131G = HA-SPOP W131G (UniProt O43791); test: as above
HA-SPOP F102C = HA-SPOP F102C (UniProt O43791); test: as above

B1: Flag-PrLZ (Prostate Leucine Zipper), wild type (protein, UniProt P55327 1-224)
chain: MDCREMDLYEDYQSPFDFDAGVNKSYLYLSPSGNSSPPGSPTLQKFGLLRTDPVPEEGEDVAATISATETLSEEEQEELRRELAKVEEEIQTLSQVLAAKEKHLAEIKRKLGINSLQELKQNIAKGWQDVTATSAYKKTSETLSQAGQKASAAFSSVGSVITKKLEDVKNSPTFKSFEEKVENLKSKVGGTKPAGGDFGEVLNSAANASATTTEPLPEKTQESL
- binding (Myc-Cullin 1): binds
- binding (Myc-Cullin 5): no binding
- binding (Myc-Cullin 2): no binding
- binding (Myc-Cullin 4A): no binding
- binding (Myc-Cullin 4B): no binding
- binding (HA-ERK2): binds
- binding (HA-ERK1): binds
- binding (HA-SPOP Y87C): no binding
- binding (HA-SPOP W131G): no binding
- binding (HA-SPOP F102C): no binding
